# Measurements as given in PubChem BioAssay (NCATS).
# The shares of active, inactive and inconclusive entries below differ from those in the screen. For part of these data: Potencies beside an inconclusive call are fits to weak or partial responses and may not hold up. Activity calls are given as the source filed them. Unless noted, the call rests on the fitted dose curve; in most records, active means well fitted curve in either direction with a large enough effect (not every such curve was filed as active); inconclusive means small, poorly fitted or top-dose-only effect, or another doubt; inactive means flat fitted curve, though single readings scatter.
# How the values were obtained:
# [1] = NFAT Signaling Pathway (AID 444); settings: Jurkat NFAT-bla M1, carbachol, beta-lactamase ratio, 5 h; at 17.2 µM (top of the series) unless noted;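 further: carbachol stimulus at about its EC50 of 1 µM final; on the % scale 0 is the no-effect control and ±100 the full control effect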
# Summary of the method: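 Read-out: CCF4 FRET ratio (460 nm/530 nm) after 1 h RT dye loading, used for %activity and AC50 from titration series. Cells: Jurkat NFAT-β-lactamase/M1 line, treated with compound plus 1 uM carbachol for 5 h, 37 °C.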
# [2] = target: Mitogen-activated protein kinase 10 (Mus musculus) (UniProt Q61831); assay: JNK3 AlphaScreen Assay (AID 530); settings: JNK3 lysate, c-Jun phosphorylation; activity change, negative = inhibition: at 57.1 µM (top of the series);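 further: kinase came from lysate of stimulated human HepG2 cells; signal reports phosphorylation of biotinylated GST-cJun 1-79 at Ser73 with 10 µM ATP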; further: potency means the concentration at half of the fitted maximal effect; on activity change, negative = inhibition: on the % scale 0 is the no-effect control and ±100 the full control effect
# Summary of the method: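 Room-temperature AlphaScreen kinase assay; pre-activated HepG2 lysate as JNK3 source, biotin-GST-cJun(1-79) substrate, 10 uM ATP, compound 15 min preincubation.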
# [3] = target: 3',5'-cyclic-AMP phosphodiesterase 4B (Homo sapiens) (UniProt Q07343); assay: qHTS Assay for Inhibitors of PDE-IV (AID 607; active means well fitted activation curve with a large enough effect in the main read-out, with a control signal flat, not every such curve was filed as active; inconclusive means small, poorly fitted or top-dose-only effect, or effect the other way, or a change in a side signal; further: potency means the concentration at half of the fitted maximal effect; on activation (PDE inhibition): % of control where 0% means no effect); settings: HEK293 ACTOne CNG channel cells, membrane potential fluorescence; activation (PDE inhibition): at 22.9 µM (top of the series)
# Chain of UniProt Q07343 (Q07343 whole entry, looked up): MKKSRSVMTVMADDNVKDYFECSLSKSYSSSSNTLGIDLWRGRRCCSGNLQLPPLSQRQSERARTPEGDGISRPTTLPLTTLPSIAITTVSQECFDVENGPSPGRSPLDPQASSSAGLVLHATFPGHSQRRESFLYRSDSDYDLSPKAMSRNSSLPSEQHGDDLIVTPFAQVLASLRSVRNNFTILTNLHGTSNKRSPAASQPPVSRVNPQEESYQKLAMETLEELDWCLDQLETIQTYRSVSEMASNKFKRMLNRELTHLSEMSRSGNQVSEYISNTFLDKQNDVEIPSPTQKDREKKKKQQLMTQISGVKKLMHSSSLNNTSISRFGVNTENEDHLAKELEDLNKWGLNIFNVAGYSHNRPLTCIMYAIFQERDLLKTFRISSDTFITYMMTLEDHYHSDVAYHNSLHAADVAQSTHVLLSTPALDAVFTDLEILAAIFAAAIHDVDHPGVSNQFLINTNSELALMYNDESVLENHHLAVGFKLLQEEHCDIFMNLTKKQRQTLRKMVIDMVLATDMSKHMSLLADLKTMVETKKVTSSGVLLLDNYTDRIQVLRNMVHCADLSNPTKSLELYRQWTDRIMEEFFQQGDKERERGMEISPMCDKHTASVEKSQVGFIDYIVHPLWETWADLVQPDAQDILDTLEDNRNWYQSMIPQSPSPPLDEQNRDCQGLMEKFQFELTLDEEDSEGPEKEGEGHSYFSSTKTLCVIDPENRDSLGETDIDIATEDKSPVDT
# Summary of the method: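 The readout is membrane depolarisation from a cAMP-sensing CNG channel, detected with a potential dye at ex 535/em 590. Cells were HEK293-derived (endogenous PDE-IV) at 1000 cells/well, titrated up to 22.9 uM final.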
# [4] = qHTS Assay for Identification of Small Molecule Agonists for Hypoxia Response Element Signaling Pathway (AID 914; active means well fitted activation curve with a large enough effect in the signal ratio, with a control signal flat, not every such curve was filed as active; inconclusive means small, poorly fitted or top-dose-only effect, or effect the other way, or a change in a side signal; the % refers to the signal ratio; further: potency means the concentration at half of the fitted maximal effect); settings: ME-180 (cervical carcinoma) HRE-bla reporter, beta-lactamase ratio, CoCl2, 17 h; activation: hits give high values
# Summary of the method: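 Cells were plated overnight, pin-dosed with compound in a titration series, co-stimulated with EC50 CoCl2 and incubated 17 hours at 37 degrees Celsius. CCF4 substrate was then loaded, and AC50 values came from the 460nm/530nm ratio.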
# [5] = target: Cytochrome P450 2C19 (Homo sapiens) (UniProt P33261); assay: qHTS Assay for Inhibitors and Substrates of Cytochrome P450 2C19 (AID 899; active means well fitted curve in the direction sought with a large enough effect; inconclusive means small, poorly fitted or top-dose-only effect, or another doubt; inactive means no such curve, though single readings can be large; an effect the other way counts as inactive or inconclusive; further: potency means the concentration at half of the fitted maximal effect; nearly all actives have a fitted effect of over 60% in size); settings: recombinant CYP2C19, luciferin-H EGE luminescence; series mostly up to 11.4 µM
# Chain of UniProt P33261 (P33261 whole entry, looked up): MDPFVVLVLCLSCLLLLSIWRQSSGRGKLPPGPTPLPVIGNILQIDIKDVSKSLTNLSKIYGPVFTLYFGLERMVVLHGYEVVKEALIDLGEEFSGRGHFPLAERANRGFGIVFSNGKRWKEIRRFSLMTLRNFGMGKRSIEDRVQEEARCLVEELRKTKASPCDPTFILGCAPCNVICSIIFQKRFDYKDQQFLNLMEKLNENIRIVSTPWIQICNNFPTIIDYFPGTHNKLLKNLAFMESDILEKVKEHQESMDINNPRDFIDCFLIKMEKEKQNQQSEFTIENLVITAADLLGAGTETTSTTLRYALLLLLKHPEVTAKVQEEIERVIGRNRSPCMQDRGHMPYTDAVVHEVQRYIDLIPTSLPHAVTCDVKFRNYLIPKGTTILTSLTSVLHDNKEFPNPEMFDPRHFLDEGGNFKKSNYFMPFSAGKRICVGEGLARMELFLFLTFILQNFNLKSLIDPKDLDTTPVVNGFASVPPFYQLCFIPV
# Summary of the method: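 5nM enzyme + 10uM Luciferin-H EGE (=KM), 50mM KPO4; cpd pin-transferred, 10 min 37C; NADPH regen, 60 min 37C; stopped w/ luciferin detection reagent, 20 min; luminescence. Normalized to 57uM ketoconazole (AC100).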
# [6] = target: Ubiquitin carboxyl-terminal hydrolase 1 (Homo sapiens) (UniProt O94782); assay: Inhibitors of USP1/UAF1: Pilot qHTS (AID 504865; active means well fitted curve in the direction sought with a large enough effect; inconclusive means small, poorly fitted or top-dose-only effect, or another doubt; inactive means no such curve, though single readings can be large; an effect the other way counts as inactive or inconclusive;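 further: rhodamine fluorescence freed from ubiquitin-rhodamine substrate followed over time; potency means the concentration at half of the fitted maximal effect; nearly all actives have a fitted effect of over 35% in size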); settings: purified USP1/UAF1, Ub-rhodamine cleavage fluorescence; series mostly up to 54.9 µM
# Chain of UniProt O94782 (O94782 whole entry, looked up): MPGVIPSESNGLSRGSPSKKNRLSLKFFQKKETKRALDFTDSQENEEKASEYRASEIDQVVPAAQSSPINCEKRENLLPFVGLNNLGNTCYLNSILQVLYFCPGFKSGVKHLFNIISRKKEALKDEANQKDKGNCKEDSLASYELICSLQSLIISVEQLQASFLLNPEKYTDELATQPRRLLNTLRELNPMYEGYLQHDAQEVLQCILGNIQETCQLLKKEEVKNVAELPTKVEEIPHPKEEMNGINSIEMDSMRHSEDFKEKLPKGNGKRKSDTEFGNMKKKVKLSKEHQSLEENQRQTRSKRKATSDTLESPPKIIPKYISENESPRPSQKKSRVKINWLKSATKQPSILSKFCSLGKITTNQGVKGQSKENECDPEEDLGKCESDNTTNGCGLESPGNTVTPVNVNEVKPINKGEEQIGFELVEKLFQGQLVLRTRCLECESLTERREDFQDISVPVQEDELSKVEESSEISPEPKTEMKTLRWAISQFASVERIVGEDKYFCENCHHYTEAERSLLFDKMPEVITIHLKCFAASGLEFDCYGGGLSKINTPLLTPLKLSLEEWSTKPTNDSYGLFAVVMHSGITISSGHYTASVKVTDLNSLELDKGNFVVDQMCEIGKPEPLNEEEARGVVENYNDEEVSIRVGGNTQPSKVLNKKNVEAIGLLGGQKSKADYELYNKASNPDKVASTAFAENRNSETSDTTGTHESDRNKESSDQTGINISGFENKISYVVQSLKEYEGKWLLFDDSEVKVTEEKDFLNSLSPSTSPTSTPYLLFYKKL
# Summary of the method: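 Kinetic fluorescence assay: 1nM USP1/UAF1, 15 min compound preincubation, then 150nM Ub-Rho; 480/540 nm.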
# Tags describe the fitted curve by direction and shape or compound fluorescence and quenching.
structure (smiles),measurement,setting,value
C[C@@]12C[C@H](O)[C@@H]3[C@H](CCC4=CC(=O)CC[C@]43C)[C@H]1CC[C@@H]2c1csc(N)n1,"activity change, negative = inhibition",[1],inconclusive: -61.6% [inhibitor] [at 7.69 µM]
same,"activity change, negative = inhibition",[2],inactive: -3.68% [at 11.4 µM]
Clc1ccccc1NN(Cc1ccccn1)c1ccccc1Cl,"activity change, negative = inhibition",[1],inconclusive: -68% [inhibitor] [at 7.69 µM]
same,"activity change, negative = inhibition",[2],inactive: 2.97% [at 11.4 µM]
same,Potency,[3],inactive
same,Potency,[4],"inconclusive: 1.26 µM [inhibitor, single point]"
O=C(Oc1ccccc1)N1CCC2(CC1)CN(c1ccncc1)C2,"activity change, negative = inhibition",[1],inconclusive: -59.5% [inhibitor] [at 7.69 µM]
same,Potency,[2],"inconclusive: 0.0126 µM [activator, full curve, poor fit]"
CN(C)c1ccc(-c2cncnc2NCc2ccccc2)cc1,"activity change, negative = inhibition",[1],inconclusive: 5.74% [inhibitor] [at 7.69 µM]
same,Potency,[2],"inconclusive: 20 µM [inhibitor, partial curve]"
same,Potency,[3],"inconclusive: 12.6 µM [activator, partial curve]"
same,Potency,[5],active: 0.398 µM
same,Potency,[4],"inconclusive: 6.31 µM [inhibitor, single point]"
same,Potency,[6],"inconclusive: 56.2 µM [inhibitor, partial curve, poor fit]"
CN(C)C[C@H]1CCC[C@@H](CN(C)C)C1=O,"activity change, negative = inhibition",[1],inactive: -4.78% [at 7.69 µM]
same,"activity change, negative = inhibition",[2],inactive: 4.84% [at 11.4 µM]
Cn1cccc1C(=O)N1CCC2(CCCN(C(=O)Nc3cccc(F)c3)C2)CC1,"activity change, negative = inhibition",[1],inconclusive: -36% [inhibitor] [at 7.69 µM]
same,Potency,[2],inactive
